Measurements reported in PubChem BioAssay AID686978 (National Center for Advancing Translational Sciences (NCATS), 2013).
Out of some 420,000 compounds screened, about 64,000 (15%) were called active. This list was built around the results that the source calls inconclusive (neither active nor inactive); the mix of calls is not that of the screen. Calls follow the shape of the dose curve; as a rule, active = well fitted inhibition curve with a large enough effect; inconclusive = small, poorly fitted or top-dose-only effect; inactive = flat fitted curve, though single readings scatter. No potency is given beside an inconclusive call; the fits are too rough.

Test: qHTS for Inhibitors of human tyrosyl-DNA phosphodiesterase 1 (TDP1): qHTS in cells in absence of CPT; also: nearly all actives have a fitted effect of over 55% in size
Details: DT40 Tdp1-/- hTDP1 cells, no CPT, ATP luminescence, 48 h; activity change, negative = growth inhibition: at 46.2 µM (top of the series)
In short: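 Compound effects on proliferation are scored in DT40 Tdp1-/-;hTDP1 cells in the absence of CPT. ATP levels (CellTiter-Glo luminescence) are recorded after a ≥48 hr, 37 °C incubation.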
% is scaled to controls: 0 for no effect and ±100 for the full control effect; potency is read from the fitted curve at half-maximal effect; tags tell the direction and shape of the fitted curve.

SMILES	Potency	activity change, negative = growth inhibition
Cc1ccc(CNC(=O)CC(C)S(=O)(=O)c2ccc3c(c2)NC(=O)C(C)S3)cc1 (stereo unspecified)	inconclusive [inhibitor, partial curve]	
CC(C)CCN1C(=O)c2ccccc2CC1(C)C(=O)NC1CCC(C)CC1 (stereo unspecified)	inconclusive [inhibitor, partial curve]	
O=C(NCCCCCCCCNC(=O)c1cccc2ccccc12)c1cccc2ccccc12	inconclusive [inhibitor, single point]	
O=C(Cc1ccccc1)Nc1ccccc1C(=O)NCC1CCCO1 (stereo unspecified)		inactive: 6.15%
Cc1ccc(C)c(OCCC(=O)OCC(=O)NC(=O)NCc2ccccc2)c1	inconclusive [inhibitor, partial curve, poor fit]	
COc1ccc(NC(=S)N2CCC(C(=O)c3ccc(OC)cc3)CC2)cc1	active: 16.4 µM	
O=C(O)/C=C/c1cnn(-c2ccccc2)c1		inactive: -7.01%
O=C(Nc1cccc(F)c1)[C@H](CSCc1ccccc1)N1Cc2ccccc2C1=O		inconclusive: -33.3% [inhibitor]
O=C1/C(=C\c2ccccc2Cl)SC(=S)N1CCC(=O)N1CCCc2ccccc21	active: 14.6 µM	
Cc1cccc(N(C(=O)Cc2cccs2)C(C(=O)NC2CCCC2)c2ccncc2)c1 (stereo unspecified)	inconclusive [inhibitor, partial curve]	
O=C(NCCCN1CCOCC1)c1c(O)c2cc(Br)cc(Br)c2[nH]c1=O	inconclusive [inhibitor, single point]	
Cc1cc(Br)ccc1OCCCCNCCO	active: 20.6 µM	
COc1ccc(NC(=O)C2CCN(S(=O)(=O)c3ccc4[nH]c5c(c4c3)CCCCC5)CC2)cc1	inconclusive [inhibitor, partial curve]	
O=C(CSc1ccccc1)Nc1nnc(C2CC2)s1		inactive: 9.91%
Cc1cccc(NC(=S)NC2CCCCC2)n1	inconclusive [inhibitor, single point]	
CCn1c(=O)c([N+](=O)[O-])c(NCCc2ccc(OC)c(OC)c2)c2ccccc21	inconclusive [inhibitor, single point]	
O=C(c1ccccc1)c1ccc(C(=O)N2CCN(c3ccc(F)cc3)CC2)o1	active: 11.6 µM	
COc1ccc(-c2oc3cc(OC)c(OC(C)=O)c(OC)c3c(=O)c2OC)cc1OC(C)=O		inconclusive: -11.5% [inhibitor]
CC(=O)OC[C@@H]1CN(Cc2ccccc2)C[C@H](n2cnc3c(NC(C)C)ncnc32)O1	inconclusive [inhibitor, single point]	
CNC(=O)CSc1nccn1Cc1ccc(Cl)cc1	inconclusive [inhibitor, single point]	
Cc1nnc(NC(=O)CSc2ncnc3scc(-c4ccccc4)c23)s1	inconclusive [inhibitor, single point]	
Cc1cc(/C=c2/sc3nc4ccccc4n3c2=O)c(C)n1-c1ccccn1	active: 18.4 µM	
CCOc1ccc(CCNC(=O)COC(=O)c2nc(Cl)ccc2Cl)cc1OCC		inactive: -16.6%
CCc1cccc2c(C(=O)Cn3nnc(-c4ccc(OC)c(OC)c4)n3)c[nH]c12	inconclusive [inhibitor, single point]	

SMILES	Potency	activity change, negative = growth inhibition
CCN(CC)CCNC(=O)c1cc(-c2ccco2)nc2ccccc12		inactive: -18.5%
CCOc1ccccc1Nc1nnc(SCc2ccc(C(=O)OC)o2)s1	inconclusive [inhibitor, single point]	
CC(C)=CCc1c(-c2ccc(O)cc2O)oc2cc3c(c(O)c2c1=O)C=CC(C)(C)O3	active: 23.1 µM	
CC(OC(=O)C1=COCCO1)C(=O)Nc1ccc(Cl)cn1 (stereo unspecified)		inactive: -1.17%
CCn1cc(Br)c(C(=O)Nc2ccc(F)c(Cl)c2)n1	inconclusive [inhibitor, single point]	
O=C(Cc1c(F)cccc1Cl)NNC(=O)c1ccc(Br)s1		inactive: 14.7%
O=C(COC(=O)c1ccccc1O)Nc1cccc(S(=O)(=O)NC2=NCCCCC2)c1	inconclusive [inhibitor, partial curve]	
Cc1ccc(NC(=O)C2CCCN(c3ncnc4onc(-c5ccc(F)cc5)c34)C2)c(Cl)c1 (stereo unspecified)	inconclusive [inhibitor, single point]	
CC12CCC(C(=O)Nc3cccc4ccccc34)(C1Br)C2(C)C (stereo unspecified)	inconclusive [inhibitor, single point]	
Cc1cc(NC(=O)c2cccc(C(=O)Nc3cc(C)on3)n2)no1	active: 0.651 µM	
CCOC(=O)C1=C(C)NC(=O)NC1c1cn(-c2ccccc2)nc1-c1ccc(OCC)cc1 (stereo unspecified)	inconclusive [inhibitor, single point]	
O=C(O)CN1C(=O)/C(=C/c2ccccc2Br)Oc2ccccc21		inactive: 2.24%
CCCCOc1cccc(C(=O)Nc2cccc(-c3nc4ncccc4o3)c2C)c1	inconclusive [inhibitor, single point]	
COc1ccc(CNc2nnnn2C)c(OC)c1		inactive: -1.36%
CCC(C)NC(=O)Cn1ccc2cc(S(=O)(=O)N3CCCCC3)ccc21 (stereo unspecified)		inactive: -12.9%
Cn1ncc(N=Cc2ccccc2O)c1C(=O)Nc1ccccc1		inactive: -14.3%
Cc1ccc(C(=O)O)cc1N=Cc1cc(Br)cc(Br)c1O	inconclusive [inhibitor, single point]	
COc1ccc(NCC(=O)N/N=C(\C)c2cc3ccccc3o2)cc1	inconclusive [inhibitor, single point]	
COC(=O)c1cnc(Nc2nc(CN)cs2)nc1C(F)(F)F	inconclusive [inhibitor, single point]	
O=c1c2c3c(sc2nc2sc(C4CC4)nn12)CCCC3	inconclusive [inhibitor, full curve]	
COc1cc(CNCCCN2CCOCC2)c(Br)cc1OCC(=O)Nc1ccccc1C	inconclusive [inhibitor, single point]	
Fc1ccccc1COc1ccc(Br)cc1CNCc1cccnc1	inconclusive [inhibitor, single point]	
COc1ccc(CNC(=O)CCNC(=O)N2CC(=O)Nc3ccccc32)cc1		inactive: -18%
COC(=O)Cc1ccc(NC(=S)N2CCC(Cc3ccccc3)CC2)cc1	inconclusive [inhibitor, single point]	

SMILES	Potency	activity change, negative = growth inhibition
CC(=O)NC(CC(=O)Nc1ccc(S(=O)(=O)N2CCOCC2)cc1)c1ccccc1 (stereo unspecified)		inactive: -0.105%
CCOC(=O)N1CCN(C(=O)c2ccc(CSc3ccc(Cl)cc3)cc2)CC1	active: 7.31 µM	
CCc1nc(=O)c(-c2ccccc2)c(C)n1-c1ccccc1	inconclusive [inhibitor, partial curve, poor fit]	
O=C(COc1cccc(C(F)(F)F)c1)NCC(c1ccco1)N1CCCCC1 (stereo unspecified)	inconclusive [inhibitor, single point]	
Cc1ccc(S(=O)(=O)N2CCCN(c3nc(-c4cccs4)nc4ccccc34)CC2)cc1	inconclusive [inhibitor, single point]	
CC(=O)Nc1ccc(S(=O)(=O)NC2CC(=O)N(c3ccc(C)c(C)c3)C2)cc1 (stereo unspecified)	inconclusive [inhibitor, single point]	
CC(C)CCn1cnc2c(NCc3ccccc3)ncnc21	inconclusive [inhibitor, partial curve]	
CC(C)c1ccc2oc(-c3ccc(NC(=O)c4ncn[nH]4)cc3)nc2c1	inconclusive [inhibitor, partial curve]	
COc1ccc(OC)c(CN2C(=O)CN(S(C)(=O)=O)CC2(C)C(=O)Nc2c(C)cccc2C)c1 (stereo unspecified)		inactive: -3.47%
CSc1ncc(C(=O)N2CCN(c3cc(C)ccc3C)CC2)c(C)n1	inconclusive [inhibitor, single point]	
COC(=O)c1c(N)n(CCCN2CCOCC2)c2nc3ccccc3nc12		inactive: -11.5%
COc1cc(CC(=O)OCC(=O)NC2CCCCC2C)cc(OC)c1OC (stereo unspecified)		inactive: 23.5%
CCn1c(=N)c(C(=O)NCc2ccccc2)cc2c(=O)n3cc(C)ccc3nc21		inactive: 2.45%
COCCCn1c(SCC(=O)OC2CCCCC2)nnc1-c1cccs1		inactive: -1.52%
COc1ccccc1/C=C1/SC(=S)N(C(C)C(=O)NC2C=CS(=O)(=O)C2)C1=O (stereo unspecified)	inconclusive [inhibitor, single point]	
Cc1oc(-c2ccc(C(=O)NCc3ccc(Cl)cc3)cc2)nc1CS(=O)(=O)c1ccccc1		inconclusive: -25.3% [inhibitor]
COc1ccccc1NS(=O)(=O)c1cc(C(=O)NCC(c2cccs2)N2CCOCC2)ccc1C (stereo unspecified)	inconclusive [inhibitor, single point]	
CCOc1ccc(-c2ncnn2-c2sc3c(c2C#N)CCCCC3)cc1	inconclusive [inhibitor, single point]	
CC(C)c1ccc(N2C(=O)CS(=O)(=O)C23C(=O)N(Cc2cccc(F)c2)c2ccccc23)cc1 (stereo unspecified)	inconclusive [inhibitor, single point]	
OCCNc1nc(NCc2ccccc2)c2ccccc2n1	inconclusive [inhibitor, single point]	
Cn1cc(S(=O)(=O)N2CCCC2)cc1C(=O)NCc1ccc(Cl)cc1	inconclusive [inhibitor, single point]	
O=C(CN1c2ccccc2Sc2ccccc21)NNC(=S)Nc1ccc(Cl)cc1Cl	inconclusive [inhibitor, single point]	
CCc1nnc(NC(=O)CN2CCN(S(C)(=O)=O)CC2)s1		inactive: 1.07%
